Assay results reported in the supplement of paper PMC10126150.
Values marked as one replicate rest on one cluster of the flow cell; about a third of the high ones do not repeat.

tested on: ATP; assay: switch fluorescence ratio, 500 uM ATP over buffer (Cy3 cluster intensity, sum of 5 cycles each) (fold (ratio)); higher = stronger signal-on switching upon ATP binding; sequences stand for … in TCGTCGGCAGCGTCAGATGTGTATAAGAGACAGTTTTTTTTTTTTTTTTTTTTTTTTT…TC; settings: aptamer strand: ATP DNA aptamer (quencher-CACCTGGGGGAGTATTGCGGAGGAAGG + anchor), 100 nM annealed; ATP concentration: 500 uM; one replicate
How it was run: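 Clusters carrying Cy3-labelled switching strands on a modified Illumina MiSeq flow-cell were annealed to 100 nM quencher-labelled ATP aptamer and imaged in selection buffer. They were imaged again after 15 min with 500 uM ATP at 22 °C, over five buffer/ATP cycles with NaOH stripping and re-annealing in between. For each cluster, the fluorescence ratio is the summed Cy3 intensity of the target cycles divided by that of the buffer cycles, averaged per switch-domain sequence. Clusters outside 100-1000 RFU were left out.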
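Further: ATP exposure 15 min at 22 °C before imaging.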

Sequence	switch fluorescence ratio
GCCATGGCTG	0.978
GCCATGTGTG	1.03
GCCATTGCGT	1.01
GCCCACACA	1.03
GCCCACCAGA	1.08
GCCCAGAGGT	2.19
GCCCCCCACC	1.56
GCCCCCTGCC	1.22
GCCCCGCTGA	1.54
GCCCCGGAAG	1.14
GCCCCTCCAA	1.29
GCCCGAGATA	1.05
GCCCGAGCAT	1.22
GCCCGGTCAG	0.996
GCCCGTGATC	1.59
GCCCTCAGCC	1.08
GCCCTCAGGT	1.77
GCCCTCCCCG	1.84
GCCCTTGCCC	1.02
GCCGAACGGG	1.06
GCCGAATAGT	0.998
GCCGACAAAA	1.4
GCCGACATTT	1.09
GCCGACCGTC	1.1
GCCGACCTAT	1.02

Sequence	switch fluorescence ratio
GCCGACTTTT	1.02
GCCGAGATTT	0.979
GCCGAGGGAC	1.01
GCCGATCCGC	1.72
GCCGATTTTT	0.985
GCCGCAGCT	1.13
GCCGCCTACA	0.929
GCCGCGGGGC	1.08
GCCGCGTCTA	1.03
GCCGCTCATG	1.05
GCCGCTTCCA	0.988
GCCGGAAGCT	0.984
GCCGGAGACG	1.01
GCCGGATAGT	1.01
GCCGGATTGT	1.02
GCCGGATTTC	1.01
GCCGGCGTCT	0.974
GCCGGCTCGA	0.943
GCCGGGTGCC	1.07
GCCGGTACCG	0.999
GCCGGTGAGC	0.976
GCCGGTGTTG	0.983
GCCGTAGGTG	1.07
GCCGTAGGTT	1.04
GCCGTCCGTC	0.99

Sequence	switch fluorescence ratio
GCCGTGACGA	1.01
GCCGTGGTGG	0.996
GCCGTGTTTG	1.04
GCCTAAGCG	0.987
GCCTAGTCAT	1
GCCTATTCGA	0.952
GCCTCAACGT	1.03
GCCTCAATCG	1.07
GCCTCACGGT	1.01
GCCTCATCGC	0.973
GCCTCGCGAT	2.75
GCCTCGGGCC	0.975
GCCTCTAGGT	0.974
GCCTCTTCTA	1
GCCTGAACAT	0.986
GCCTGAGTCG	1.12
GCCTGATTAC	1.05
GCCTGGCCGG	0.995
GCCTGTGCTC	1.03
GCCTTAGAAT	0.995
GCCTTCAGCT	0.968
GCCTTGTCT	0.967
GCGAAAACTT	1.04
GCGAAACAAG	1.04
GCGAAAGTAG	1.01

Sequence	switch fluorescence ratio
GCGAACCACA	1.02
GCGAACGGCC	1.03
GCGAACTGGG	1.19
GCGAAGAC	1.53
GCGAAGACTT	0.98
GCGAAGCAAG	1.05
GCGAAGCATA	1.06
GCGAAGGAAA	1.05
GCGAAGTCTT	0.972
GCGAAGTTTC	1.01
GCGAATGTGC	1
GCGAATTTTT	0.979
GCGACAACCT	1.93
GCGACAGGAG	1
GCGACCACGC	1.03
GCGACCGGGT	1.04
GCGACCTATC	1.13
GCGACGGGTA	1.12
GCGACGGTTT	1.04
GCGAGAGAGG	0.995
GCGAGAGGCC	1.1
GCGAGCGC	0.983
GCGAGGCGGC	0.993
GCGAGGGTCA	1.04
GCGATAACGG	1.03

Sequence	switch fluorescence ratio
GCGATACAAG	1.16
GCGATAGTTC	1.05
GCGATCATGC	1.02
GCGATCTGAA	1
GCGATGAATA	0.973
GCGATTATGC	0.972
GCGATTTCCT	1.1
GCGCAAGACG	2.31
GCGCAATGAA	1.11
GCGCACATCA	1.04
GCGCACCATT	0.968
GCGCAGCCGC	0.97
GCGCATGGAA	1.02
GCGCATGTTC	1.44
GCGCATTTCT	1.18
GCGCCACCCC	1.01
GCGCCCCATT	1.06
GCGCCCCCCT	0.987
GCGCCGCTGC	1.58
GCGCCGGTTT	1.05
GCGCGAAGCA	1.04
GCGCGCAGAC	1.17
GCGCTAATTA	0.993
GCGCTATAGG	1.08
GCGCTCTTTT	0.995

Sequence	switch fluorescence ratio
GCGCTTCAGG	1.06
GCGGAATCTT	0.997
GCGGAATGTG	0.994
GCGGACCGTA	1.04
GCGGACGACC	1.75
GCGGATAAAA	1.08
GCGGATAAGG	0.938
GCGGATGGAC	1.02
GCGGATTTGC	0.998
GCGGCACCAT	0.971
GCGGCACG	0.986
GCGGCAGACT	1.07
GCGGCCATTT	1.02
GCGGCCGGAT	1.07
GCGGCCGTAG	1.06
GCGGCCTTGG	0.994
GCGGCGCGGG	1
GCGGCGTCGG	0.973
GCGGCGTTTC	0.97
GCGGCTGGT	0.966
GCGGGAAGAG	1.06
GCGGGATCGA	1.14
GCGGGCTCAG	1.02
GCGGGCTCGC	1.03
GCGGGGACCA	1

Sequence	switch fluorescence ratio
GCGGGTCGCG	1.01
GCGGGTCGGT	1.01
GCGGGTTCGG	0.971
GCGGTACAGT	1.03
GCGGTACGG	1.06
GCGGTATTAT	0.976
GCGGTATTGG	0.978
GCGGTCCGCT	0.947
GCGGTCCTTG	1.01
GCGTAATCAG	1.02
GCGTACAACC	1.09
GCGTATTTAT	1
GCGTCAATCA	1.1
GCGTCAGCCA	0.987
GCGTCATAAC	1.23
GCGTCCTAAA	0.957
GCGTCGGGA	1.01
GCGTCTAACC	1
GCGTCTAGAG	0.953
GCGTCTAGCA	0.959
GCGTCTTTGA	1.02
GCGTGATCTG	0.997
GCGTGCCGAT	0.978
GCGTGGAATT	0.958
GCGTGGCGTA	0.992

Sequence	switch fluorescence ratio
GCGTGGGCTT	1.01
GCGTGTATAC	1.1
GCGTGTATT	1.02
GCGTGTGTCG	1.04
GCGTTAAC	1.06
GCGTTAACCA	0.977
GCGTTAATGC	1.07
GCGTTAGTGA	1
GCGTTATTAA	0.973
GCGTTCATAT	0.984
GCGTTCGCAA	1.21
GCGTTCGGAA	1.04
GCGTTGTTAA	1.09
GCGTTTCGCT	0.993
GCGTTTTGAT	0.978
GCTAAAGATT	0.961
GCTAAATGTG	0.975
GCTAAATTAC	1.58
GCTAACCAGC	0.985
GCTAACCTCC	2.18
GCTAACTGAA	1.01
GCTAAGAGAG	1.03
GCTAAGCCTA	0.988
GCTAATAAGC	0.959
GCTAATCGCC	1.08
